This is one part of the list. The full chains were built here from the parent and the listed change. Values near 0.05 are background.
B1: TEV protease; numbered along this chain (parent)
chain: MGESLFKGPRDYNPISSSICHLTNESDGHTTSLYGIGFGPFIITNKHLFRRNNGTLVVQSLHGVFKVKDTTTLQQHLVDGRDMIIIRMPKDFPPFPQKLKFREPQREERICLVTTNFQTKSMSSMVSDTSCTFPSGDGIFWKHWIQTKDGQCGSPLVSTRDGFIVGIHSASNFTNTNNYFTSVPKNFMELLTNQEAQQWVSGWRLNADSVLWGGHKVFMVKPEEPFQPVKEATQL

Variants of: B1
Assay: raw area under fraction-flipped curve 0-4 h after induction (AUC4h, not background-subtracted), DNA-recorder readout of cleavage of the substrate (dimensionless); higher = more cleavage of the substrate by the protease variant
Conditions: temperature: 34 °C; time window: 0-4 h after rhamnose induction
Description: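 In vivo DNA recorder in E. coli TOP10(DE3) ΔrhaA at 34 °C. Each TEVp single-site mutant (parent TEVp 0) is paired with a single-site variant of the 7-mer TEVs (canonical ENLYFQ|S). The substrate sits between flexible linkers in a Bxb1-sfGFP-TEVs-SsrA fusion, so cleavage stabilises Bxb1 and speeds flipping of a recombination array, read by NGS. The value is the raw area under the fraction-flipped curve over 0-4 h after rhamnose induction (AUC4h), with ≥20 reads per time point. It is not background-subtracted; inactive controls average about 0.047.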
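Also: Bxb1 expression induced with 0.2% (w/v) L-rhamnose at OD600 near 0.5, cultures sampled hourly, flipped fraction per protease–substrate barcode pair counted by paired-end Illumina sequencing.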

Variant	area with substrate CNLYFQS	area with substrate DNLYFQS	area with substrate FNLYFQS	area with substrate GNLYFQS	area with substrate HNLYFQS	area with substrate INLYFQS	area with substrate KNLYFQS	area with substrate MNLYFQS	area with substrate PNLYFQS	area with substrate SNLYFQS	area with substrate TNLYFQS	area with substrate VNLYFQS	area with substrate WNLYFQS	area with substrate LNLYFQS	area with substrate NNLYFQS	area with substrate QNLYFQS	area with substrate RNLYFQS	area with substrate YNLYFQS
MGESLFKGPRDYNPISSSICHLTNESDGHTTSLYGIGFGPFIATNKHLFRRNNGTLVVQSLHGVFKVKDTTTLQQHLVDGRDMIIIRMPKDFPPFPQKLKFREPQREERICLVTTNFQTKSMSSMVSDTSCTFPSGDGIFWKHWIQTKDGQCGSPLVSTRDGFIVGIHSASNFTNTNNYFTSVPKNFMELLTNQEAQQWVSGWRLNADSVLWGGHKVFMVKPEEPFQPVKEATQL [I43A]	0.0509	0.047	0.0512	0.066	0.0554	0.0605	0.0546	0.0542	0.069	0.0365	0.06	0.0639	0.0385					
MGESLFKGPRDYNPISSSICHLTNESDGHTTSLYGIGFGPFINTNKHLFRRNNGTLVVQSLHGVFKVKDTTTLQQHLVDGRDMIIIRMPKDFPPFPQKLKFREPQREERICLVTTNFQTKSMSSMVSDTSCTFPSGDGIFWKHWIQTKDGQCGSPLVSTRDGFIVGIHSASNFTNTNNYFTSVPKNFMELLTNQEAQQWVSGWRLNADSVLWGGHKVFMVKPEEPFQPVKEATQL [I43N]	0.0509	0.0439	0.0433	0.0397	0.0501		0.0547	0.0548	0.0529	0.0532	0.061	0.0402	0.0349	0.0479	0.0317	0.0418	0.0573	
MGESLFKGPRDYNPISSSICHLTNESDGHTTSLYGIGFGPFIETNKHLFRRNNGTLVVQSLHGVFKVKDTTTLQQHLVDGRDMIIIRMPKDFPPFPQKLKFREPQREERICLVTTNFQTKSMSSMVSDTSCTFPSGDGIFWKHWIQTKDGQCGSPLVSTRDGFIVGIHSASNFTNTNNYFTSVPKNFMELLTNQEAQQWVSGWRLNADSVLWGGHKVFMVKPEEPFQPVKEATQL [I43E]	0.0431	0.0461	0.0428	0.0493	0.0544		0.0599	0.0524	0.0437	0.0382	0.0382	0.0497	0.0437	0.051			0.0529	0.0424
MGESLFKGPRDYNPISSSICHLTNESDGHTTSLYGIGFGPFILTNKHLFRRNNGTLVVQSLHGVFKVKDTTTLQQHLVDGRDMIIIRMPKDFPPFPQKLKFREPQREERICLVTTNFQTKSMSSMVSDTSCTFPSGDGIFWKHWIQTKDGQCGSPLVSTRDGFIVGIHSASNFTNTNNYFTSVPKNFMELLTNQEAQQWVSGWRLNADSVLWGGHKVFMVKPEEPFQPVKEATQL [I43L]	0.0828	0.0698	0.0728	0.0764	0.0582	0.0603	0.0715	0.0538	0.0612		0.0577	0.0625	0.0582					0.0584
MGESLFKGPRDYNPISSSICHLTNESDGHTTSLYGIGFGPFIQTNKHLFRRNNGTLVVQSLHGVFKVKDTTTLQQHLVDGRDMIIIRMPKDFPPFPQKLKFREPQREERICLVTTNFQTKSMSSMVSDTSCTFPSGDGIFWKHWIQTKDGQCGSPLVSTRDGFIVGIHSASNFTNTNNYFTSVPKNFMELLTNQEAQQWVSGWRLNADSVLWGGHKVFMVKPEEPFQPVKEATQL [I43Q]	0.0391	0.0621	0.0415	0.0533	0.0478	0.0306		0.0347	0.0439	0.0476	0.0526		0.0428	0.0486	0.0337	0.0472		0.057
MGESLFKGPRDYNPISSSICHLTNESDGHTTSLYGIGFGPFIITNAHLFRRNNGTLVVQSLHGVFKVKDTTTLQQHLVDGRDMIIIRMPKDFPPFPQKLKFREPQREERICLVTTNFQTKSMSSMVSDTSCTFPSGDGIFWKHWIQTKDGQCGSPLVSTRDGFIVGIHSASNFTNTNNYFTSVPKNFMELLTNQEAQQWVSGWRLNADSVLWGGHKVFMVKPEEPFQPVKEATQL [K46A]	0.063	0.0671	0.0807	0.0719	0.0664	0.0572	0.0711	0.0753	0.114	0.0618	0.12	0.093	0.0726	0.0773	0.0724	0.062		0.0722
MGESLFKGPRDYNPISSSICHLTNESDGHTTSLYGIGFGPFIITNCHLFRRNNGTLVVQSLHGVFKVKDTTTLQQHLVDGRDMIIIRMPKDFPPFPQKLKFREPQREERICLVTTNFQTKSMSSMVSDTSCTFPSGDGIFWKHWIQTKDGQCGSPLVSTRDGFIVGIHSASNFTNTNNYFTSVPKNFMELLTNQEAQQWVSGWRLNADSVLWGGHKVFMVKPEEPFQPVKEATQL [K46C]	0.0649	0.075		0.0583	0.0543	0.0616	0.0619	0.0806	0.0523	0.0649	0.0519	0.0712	0.0561	0.0552	0.081			0.0566
MGESLFKGPRDYNPISSSICHLTNESDGHTTSLYGIGFGPIIITNKHLFRRNNGTLVVQSLHGVFKVKDTTTLQQHLVDGRDMIIIRMPKDFPPFPQKLKFREPQREERICLVTTNFQTKSMSSMVSDTSCTFPSGDGIFWKHWIQTKDGQCGSPLVSTRDGFIVGIHSASNFTNTNNYFTSVPKNFMELLTNQEAQQWVSGWRLNADSVLWGGHKVFMVKPEEPFQPVKEATQL [F41I]	0.0664	0.0726	0.0633	0.0713	0.0673	0.0547	0.0639	0.0539	0.0522	0.0595	0.0651		0.0525	0.0653	0.0651			0.0571

— the supplement of paper PMC12217912
